{"source": "the supplement of paper PMC8728848", "binders": {"B1": {"name": "SP16664D-bth-476-27-476 (Bacteroides thetaiotaomicron) (protein)", "chain": "DDLEVGKNIDESAYSGIYENNAYLRDGKSNLVSKVVELHGETYATTVKMGLSKTPNTATSAKVKIDAAYLETYNKAHNTDFALYPQDLVTFANEGILTVNANTKSAEVEMTIRAGEGLQEDKTYAIPVAISDQSSDITIKDEDAKHCIYLVKDMRNAGDAYKGEGVMQGYLFFEVNDVNPLNTLSFQLENGKLLWDVVVLFAANINYDAEAGRPRVQCNPNVQYLLDNNETLLQPLRRRGVKVLLGLLGNHDITGLAQLSEQGAKDFAREVAQYCKAYNLDGVNYDDEYSNSPDLSNPSLTNPSTAAAARLCYETKQAMPDKLVTVFDWGQMYGVATVDGVDAKEWIDIVVANYGSAAYPIGQMTKKQCSGISMEFNLGGGGSLSASKAQSMIDGGYGWFMGFAPSPAKYGSVFSRLQGGGEVLYGSNVAAPTIFYKKNDPTPYKYPDDL"}}, "experiment_in_all_cases": "glycan array binding signal (z-score within array); higher = stronger binding", "settings_in_all_cases": "glycan notation: IUPAC condensed, linker removed", "key": {"[1]": {"molecular_target": "Fuc(a1-2)Gal", "summary_of_the_method": "(§1)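 Glycan array binding is given as a within-array Z-score, which can be read as non-binding when negative. The arrays, 3228 of them, came from the Consortium for Functional Glycomics database and were retained only where the protein sequence was available. Z-scores were averaged across arrays of the same protein sequence at different concentrations or buffers and across linkers.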"}, "[2]": {"molecular_target": "Fuc(a1-2)Gal(b1-3)GalNAc", "summary_of_the_method": "as §1"}, "[3]": {"molecular_target": "Fuc(a1-2)Gal(b1-3)GalNAc(a1-3)[Fuc(a1-2)]Gal(b1-4)Glc", "summary_of_the_method": "as §1"}, "[4]": {"molecular_target": "Fuc(a1-2)Gal(b1-3)GalNAc(a1-3)[Fuc(a1-2)]Gal(b1-4)GlcNAc", "summary_of_the_method": "as §1"}, "[5]": {"molecular_target": "Fuc(a1-2)Gal(b1-3)GalNAc(b1-3)Gal", "summary_of_the_method": "as §1"}, "[6]": {"molecular_target": "Fuc(a1-2)Gal(b1-3)GalNAc(b1-3)Gal(a1-4)Gal(b1-4)Glc", "summary_of_the_method": "as §1"}, "[7]": {"molecular_target": "Fuc(a1-2)Gal(b1-3)GalNAc(b1-4)[Neu5Ac(a2-3)]Gal(b1-4)Glc", "summary_of_the_method": "as §1"}, "[8]": {"molecular_target": "Fuc(a1-2)Gal(b1-3)GlcNAc", "summary_of_the_method": "as §1"}, "[9]": {"molecular_target": "Fuc(a1-2)Gal(b1-3)GlcNAc(b1-2)Man(a1-3)[Fuc(a1-2)Gal(b1-3)GlcNAc(b1-2)Man(a1-6)]Man(b1-4)GlcNAc(b1-4)GlcNAc", "summary_of_the_method": "as §1"}, "[10]": {"molecular_target": "Fuc(a1-2)Gal(b1-3)GlcNAc(b1-2)Man(a1-3)[Fuc(a1-2)Gal(b1-3)GlcNAc(b1-2)Man(a1-6)]Man(b1-4)GlcNAc(b1-4)[Fuc(a1-6)]GlcNAc", "summary_of_the_method": "as §1"}, "[11]": {"molecular_target": "Fuc(a1-2)Gal(b1-3)GlcNAc(b1-3)Gal(b1-4)Glc", "summary_of_the_method": "as §1"}, "[12]": {"molecular_target": "Fuc(a1-2)Gal(b1-3)GlcNAc(b1-3)GalNAc", "summary_of_the_method": "as §1"}, "[13]": {"molecular_target": "Fuc(a1-2)Gal(b1-3)GlcNAc(b1-3)[Fuc(a1-2)Gal(b1-3)GlcNAc(b1-6)]GalNAc", "summary_of_the_method": "as §1"}, "[14]": {"molecular_target": "Fuc(a1-2)Gal(b1-3)GlcNAc(b1-3)[Gal(b1-4)GlcNAc(b1-6)]Gal(b1-4)Glc", "summary_of_the_method": "as §1"}, "[15]": {"molecular_target": "Fuc(a1-2)Gal(b1-3)GlcNAc(b1-3)[Neu5Ac(a2-6)Gal(b1-4)GlcNAc(b1-6)]Gal(b1-4)Glc", "summary_of_the_method": "as §1"}, "[16]": {"molecular_target": "Fuc(a1-2)Gal(b1-3)GlcNAc6S", "summary_of_the_method": "as §1"}, "[17]": {"molecular_target": "Fuc(a1-2)Gal(b1-3)[Fuc(a1-4)]GlcNAc", "summary_of_the_method": "as §1"}, "[18]": {"molecular_target": "Fuc(a1-2)Gal(b1-3)[Fuc(a1-4)]GlcNAc(b1-2)Man(a1-3)[Fuc(a1-2)Gal(b1-3)[Fuc(a1-4)]GlcNAc(b1-2)Man(a1-3)]Man(b1-4)GlcNAc(b1-4)GlcNAc", "summary_of_the_method": "as §1"}, "[19]": {"molecular_target": "Fuc(a1-2)Gal(b1-3)[Fuc(a1-4)]GlcNAc(b1-2)Man(a1-3)[Fuc(a1-2)Gal(b1-3)[Fuc(a1-4)]GlcNAc(b1-2)Man(a1-6)]Man(b1-4)GlcNAc(b1-4)[Fuc(a1-6)]GlcNAc(b1-4)[Fuc(a1-6)]GlcNAc", "summary_of_the_method": "as §1"}, "[20]": {"molecular_target": "Fuc(a1-2)Gal(b1-3)[Fuc(a1-4)]GlcNAc(b1-3)[Fuc(a1-3)[Gal(b1-4)]GlcNAc(b1-6)]Gal(b1-4)Glc", "summary_of_the_method": "as §1"}, "[21]": {"molecular_target": "Fuc(a1-2)Gal(b1-3)[Fuc(a1-4)]GlcNAc(b1-3)[Gal(b1-4)GlcNAc(b1-6)]Gal(b1-4)Glc", "summary_of_the_method": "as §1"}, "[22]": {"molecular_target": "Fuc(a1-2)Gal(b1-4)Glc", "summary_of_the_method": "as §1"}, "[23]": {"molecular_target": "Fuc(a1-2)Gal(b1-4)Glc6S", "summary_of_the_method": "as §1"}, "[24]": {"molecular_target": "Fuc(a1-2)Gal(b1-4)GlcNAc", "summary_of_the_method": "as §1"}, "[25]": {"molecular_target": "Fuc(a1-2)Gal(b1-4)GlcNAc(b1-2)Man", "summary_of_the_method": "as §1"}, "[26]": {"molecular_target": "Fuc(a1-2)Gal(b1-4)GlcNAc(b1-2)Man(a1-3)[Fuc(a1-2)Gal(b1-4)GlcNAc(b1-2)Man(a1-6)]Man(b1-4)GlcNAc(b1-4)GlcNAc", "summary_of_the_method": "as §1"}, "[27]": {"molecular_target": "Fuc(a1-2)Gal(b1-4)GlcNAc(b1-2)Man(a1-3)[Fuc(a1-2)Gal(b1-4)GlcNAc(b1-2)Man(a1-6)]Man(b1-4)GlcNAc(b1-4)[Fuc(a1-6)]GlcNAc", "summary_of_the_method": "as §1"}, "[28]": {"molecular_target": "Fuc(a1-2)Gal(b1-4)GlcNAc(b1-2)[Fuc(a1-2)Gal(b1-4)GlcNAc(b1-4)]Man(a1-3)[Fuc(a1-2)Gal(b1-4)GlcNAc(b1-2)Man(a1-6)]Man(b1-4)GlcNAc(b1-4)GlcNAc", "summary_of_the_method": "as §1"}, "[29]": {"molecular_target": "Fuc(a1-2)Gal(b1-4)GlcNAc(b1-3)Gal(b1-4)GlcNAc", "summary_of_the_method": "as §1"}, "[30]": {"molecular_target": "Fuc(a1-2)Gal(b1-4)GlcNAc(b1-3)Gal(b1-4)GlcNAc(b1-2)Man(a1-3)[Fuc(a1-2)Gal(b1-4)GlcNAc(b1-3)Gal(b1-4)GlcNAc(b1-2)Man(a1-6)]Man(b1-4)GlcNAc(b1-4)GlcNAc", "summary_of_the_method": "as §1"}}, "note": "The list shows a part of the results.", "data": [{"binder": "B1", "values": [{"measurement": "glycan array binding signal (z-score)", "setting": "[1]", "value": -0.249}, {"measurement": "glycan array binding signal (z-score)", "setting": "[2]", "value": -0.161}, {"measurement": "glycan array binding signal (z-score)", "setting": "[3]", "value": -0.136}, {"measurement": "glycan array binding signal (z-score)", "setting": "[4]", "value": -0.198}, {"measurement": "glycan array binding signal (z-score)", "setting": "[5]", "value": 0.123}, {"measurement": "glycan array binding signal (z-score)", "setting": "[6]", "value": -0.163}, {"measurement": "glycan array binding signal (z-score)", "setting": "[7]", "value": -0.266}, {"measurement": "glycan array binding signal (z-score)", "setting": "[8]", "value": -0.112}, {"measurement": "glycan array binding signal (z-score)", "setting": "[9]", "value": 0.254}, {"measurement": "glycan array binding signal (z-score)", "setting": "[10]", "value": -0.211}, {"measurement": "glycan array binding signal (z-score)", "setting": "[11]", "value": -0.154}, {"measurement": "glycan array binding signal (z-score)", "setting": "[12]", "value": 0.031}, {"measurement": "glycan array binding signal (z-score)", "setting": "[13]", "value": -0.301}, {"measurement": "glycan array binding signal (z-score)", "setting": "[14]", "value": -0.152}, {"measurement": "glycan array binding signal (z-score)", "setting": "[15]", "value": -0.164}, {"measurement": "glycan array binding signal (z-score)", "setting": "[16]", "value": 0.027}, {"measurement": "glycan array binding signal (z-score)", "setting": "[17]", "value": -0.043}, {"measurement": "glycan array binding signal (z-score)", "setting": "[18]", "value": -0.085}, {"measurement": "glycan array binding signal (z-score)", "setting": "[19]", "value": -0.246}, {"measurement": "glycan array binding signal (z-score)", "setting": "[20]", "value": -0.24}, {"measurement": "glycan array binding signal (z-score)", "setting": "[21]", "value": -0.129}, {"measurement": "glycan array binding signal (z-score)", "setting": "[22]", "value": -0.193}, {"measurement": "glycan array binding signal (z-score)", "setting": "[23]", "value": 0.006}, {"measurement": "glycan array binding signal (z-score)", "setting": "[24]", "value": -0.251}, {"measurement": "glycan array binding signal (z-score)", "setting": "[25]", "value": -0.112}, {"measurement": "glycan array binding signal (z-score)", "setting": "[26]", "value": -0.079}, {"measurement": "glycan array binding signal (z-score)", "setting": "[27]", "value": 0.161}, {"measurement": "glycan array binding signal (z-score)", "setting": "[28]", "value": 0.131}, {"measurement": "glycan array binding signal (z-score)", "setting": "[29]", "value": -0.168}, {"measurement": "glycan array binding signal (z-score)", "setting": "[30]", "value": 0.261}]}]}
